Source: article PMC7819943, “Rice protein-binding microarrays: a tool to detect cis-acting elements near promoter regions in rice”
This is one part of the list.

molecular target: T1, OsWOX13 (Oryza sativa, UniProt Q5QMM3 1-267); experiment: protein-binding microarray (RPBM); PBS, 2% BSA, 51.3 ng/ul salmon testes DNA, 50 uM zinc acetate, 200 nM TF, 25 C, 1 h; high values mean tight binding; settings: protein: recombinant; tags: N-terminal polyhistidine and DsRed monomer fusion (pET32a); label: CyDye5-dUTP incorporated in the synthesized complementary strand; 3' TTTTT single-stranded linker to array surface; dsDNA, one strand shown
T1 sequence: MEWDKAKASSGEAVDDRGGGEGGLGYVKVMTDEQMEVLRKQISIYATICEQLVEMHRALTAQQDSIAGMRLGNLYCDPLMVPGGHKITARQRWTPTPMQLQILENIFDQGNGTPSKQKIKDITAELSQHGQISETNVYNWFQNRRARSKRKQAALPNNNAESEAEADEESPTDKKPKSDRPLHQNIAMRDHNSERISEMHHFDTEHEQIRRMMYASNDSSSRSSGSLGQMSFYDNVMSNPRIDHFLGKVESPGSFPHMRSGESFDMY
Summary of the method: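 Binding signal is reported as fluorescence intensity per feature (arbitrary units) from an Axon 4000B scanner. Incubation used 200 nM of each Ni–NTA-purified, N-terminally polyhistidine- and DsRed-fused transcription factor from E. coli BL21-CodonPlus on a double-stranded custom Agilent array for 1 h at 25 °C, with 50 µM zinc acetate in the buffer, followed by washing.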

**Q.** “TTCAAAATTGATATTATTACACAAGCTATATTGAGTTATTCGGAGTCACCTAGTGCAG” was tested. Which binding signal did it give?
**A.** The binding signal was 11500 fluorescence intensity (a.u.).

**Q.** How did the binding signal turn out when “TTCCATGATTTCTTGGTGATCCGCTTTGCCAATGCAAGTGCGGAGTCACCTAGTGCAG” was run?
**A.** The binding signal was 5310 fluorescence intensity (a.u.).

**Q.** “AAATAATTGATATTGTAAGTGATCAATCTCAGTGCTTTTCCGGAGTCACCTAGTGCAG” was tested. Which binding signal did it give?
**A.** The binding signal was 39300 fluorescence intensity (a.u.).

**Q.** For “CGCATGGGATAATCAATTATCCCGTGCGGTCCACTTAACCCGGAGTCACCTAGTGCAG”, which binding signal is on record?
**A.** The binding signal was 6640 fluorescence intensity (a.u.).

**Q.** With “TTTAAGATGATCAGATTTCTAATTGCAGTTCACCTTAACTCGGAGTCACCTAGTGCAG” as the sequence, how does the binding signal read?
**A.** The binding signal was 7420 fluorescence intensity (a.u.).

**Q.** Which binding signal does the source give for “TTCAAGTTTGATTTGTGCTAAACAAGACCAATGTGCTAGACGGAGTCACCTAGTGCAG” here?
**A.** Its binding signal is 5640 fluorescence intensity (a.u.).

**Q.** Which binding signal does the source give for “TTTGAAATTGCTACATCAACCAATTATGGCGTTGTCTTGGCGGAGTCACCTAGTGCAG” here?
**A.** Its binding signal is 8250 fluorescence intensity (a.u.).

**Q.** With “CTAAAATTTAAATTTTAAACCTTAGTTTTAGAGTTGATTTCGGAGTCACCTAGTGCAG” as the sequence, how does the binding signal read?
**A.** Its binding signal is 18500 fluorescence intensity (a.u.).

**Q.** “AATCAACTAACTAATCATGGGATTAACCAAAACTAATTCTCGGAGTCACCTAGTGCAG” was tested. Which binding signal did it give?
**A.** The binding signal was 3800 fluorescence intensity (a.u.).

**Q.** With “ACTTTAATTTACAACTATATCTAGATTCATTAACATCTATCGGAGTCACCTAGTGCAG” as the sequence, how does the binding signal read?
**A.** The binding signal was 22100 fluorescence intensity (a.u.).

**Q.** “ATATGTAATTTGTTTTGTTATTAGACTATGTTTAATAATTCGGAGTCACCTAGTGCAG” was tested. Which binding signal did it give?
**A.** The binding signal was 11200 fluorescence intensity (a.u.).

**Q.** How did the binding signal turn out when “ACGATTGAAATGTAATGTACGTCCCATAGTTTCGCAGTGGCGGAGTCACCTAGTGCAG” was run?
**A.** Its binding signal is 24900 fluorescence intensity (a.u.).

**Q.** Which binding signal does the source give for “AGACAAAATTATTATGGAAATATATTCAATTATTGATTTGCGGAGTCACCTAGTGCAG” here?
**A.** The binding signal was 6760 fluorescence intensity (a.u.).

**Q.** For “GACTAATTGGTGGATGCATGAACCGACGTGTCGATTTTCACGGAGTCACCTAGTGCAG”, which binding signal is on record?
**A.** Its binding signal is 22200 fluorescence intensity (a.u.).

**Q.** “GATTAATTAGACTTAATAAATTCGTCTCGTGGTTTACTAACGGAGTCACCTAGTGCAG” was tested. Which binding signal did it give?
**A.** Its binding signal is 37900 fluorescence intensity (a.u.).

**Q.** “TTAGTTACTAAATTAAACTAATGACTTTCTCTTTGTTGCCCGGAGTCACCTAGTGCAG” was tested. Which binding signal did it give?
**A.** The binding signal was 7750 fluorescence intensity (a.u.).

**Q.** “CCCAGTGACAGATCAAAGAATTGCACCAGTGCCACTGCCACGGAGTCACCTAGTGCAG” was tested. Which binding signal did it give?
**A.** Its binding signal is 7030 fluorescence intensity (a.u.).

**Q.** “ACAGATTTGTGACAAATCCAGTCCACTCCAACGCATGGACCGGAGTCACCTAGTGCAG” was tested. Which binding signal did it give?
**A.** The binding signal was 5300 fluorescence intensity (a.u.).

**Q.** For “CCAGCATAATTAGCTCTGCTAATGGGACACCGTAACTAGACGGAGTCACCTAGTGCAG”, which binding signal is on record?
**A.** Its binding signal is 18000 fluorescence intensity (a.u.).

**Q.** “AAATTGATAATGAGTGATGATCGGTACCTGTAAACTGTGGCGGAGTCACCTAGTGCAG” was tested. Which binding signal did it give?
**A.** The binding signal was 15100 fluorescence intensity (a.u.).

**Q.** For “CTAAACTTCTAATGACGGGAACTAAACGCACCCTCAGTCACGGAGTCACCTAGTGCAG”, which binding signal is on record?
**A.** Its binding signal is 9300 fluorescence intensity (a.u.).

**Q.** “CAAATTGAACATTCACTATTAGGCCCGAACTCACGATATGCGGAGTCACCTAGTGCAG” was tested. Which binding signal did it give?
**A.** Its binding signal is 10900 fluorescence intensity (a.u.).

**Q.** Which binding signal does the source give for “AAGGTGATGAATTCATCAACAGCTATAGCTGATAGATCAGCGGAGTCACCTAGTGCAG” here?
**A.** Its binding signal is 3670 fluorescence intensity (a.u.).

**Q.** “TATTGTATAGATTTATTTAATCATTTTGATGTTAACATGTCGGAGTCACCTAGTGCAG” was tested. Which binding signal did it give?
**A.** Its binding signal is 3350 fluorescence intensity (a.u.).

**Q.** “TGTAATTAGCACTTCTTAACTAAGTGTTTGGTCTTTCGGTCGGAGTCACCTAGTGCAG” was tested. Which binding signal did it give?
**A.** Its binding signal is 24200 fluorescence intensity (a.u.).

**Q.** “GAATATGTGATTTGCTCGTCAATTCCCCAGTTAGTTGCAGCGGAGTCACCTAGTGCAG” was tested. Which binding signal did it give?
**A.** Its binding signal is 33200 fluorescence intensity (a.u.).

**Q.** With “CCGAAATTTTGGTTTTCTAATATTTTGAATTTGGTTAAAGCGGAGTCACCTAGTGCAG” as the sequence, how does the binding signal read?
**A.** Its binding signal is 5360 fluorescence intensity (a.u.).

**Q.** Which binding signal does the source give for “ATGCTTAATTTGCAACCTAGGTATTGTGAGCTGTCCGGGCCGGAGTCACCTAGTGCAG” here?
**A.** Its binding signal is 23400 fluorescence intensity (a.u.).

**Q.** For “AGTTATAATGGAATTAATTATAATTATAGTATAGTTAGATCGGAGTCACCTAGTGCAG”, which binding signal is on record?
**A.** The binding signal was 28600 fluorescence intensity (a.u.).

**Q.** For “CCTAACCAATTGAATTATACTCACTTTACAAATAGATCATCGGAGTCACCTAGTGCAG”, which binding signal is on record?
**A.** Its binding signal is 3480 fluorescence intensity (a.u.).

**Q.** “AAAATATATAATTATTATTTATTTTATTATGGCCTAAATTCGGAGTCACCTAGTGCAG” was tested. Which binding signal did it give?
**A.** The binding signal was 13800 fluorescence intensity (a.u.).

**Q.** “CTTCGTCAATCCCAATATATGATGGATCAGTCTTTCACATCGGAGTCACCTAGTGCAG” was tested. Which binding signal did it give?
**A.** The binding signal was 17100 fluorescence intensity (a.u.).

**Q.** “CATTTCCGAGTTGATTAATTTGCAACCATCATGCATCCATCGGAGTCACCTAGTGCAG” was tested. Which binding signal did it give?
**A.** The binding signal was 17700 fluorescence intensity (a.u.).

**Q.** “ACTAATTAATCAACCTATCCTAGTGAACATTTGGAAACTTCGGAGTCACCTAGTGCAG” was tested. Which binding signal did it give?
**A.** The binding signal was 34800 fluorescence intensity (a.u.).

**Q.** “TTGGTTGGTCGAGGTTGATCTAACGCAGCCATTAGTCAAACGGAGTCACCTAGTGCAG” was tested. Which binding signal did it give?
**A.** The binding signal was 42400 fluorescence intensity (a.u.).

**Q.** With “GAGTTGACAGAGTCAGCAATGCATGCTGCATAGTCAGATTCGGAGTCACCTAGTGCAG” as the sequence, how does the binding signal read?
**A.** The binding signal was 3900 fluorescence intensity (a.u.).

**Q.** “GTATTAATTGGGGTGATTCATGACAACGATGAGATATTAACGGAGTCACCTAGTGCAG” was tested. Which binding signal did it give?
**A.** The binding signal was 32700 fluorescence intensity (a.u.).

**Q.** For “ACTTTTCAGTTACATCATCTCTAATTTCAATTGAAATCCACGGAGTCACCTAGTGCAG”, which binding signal is on record?
**A.** Its binding signal is 7120 fluorescence intensity (a.u.).

**Q.** How did the binding signal turn out when “CTGATCGATCAAAGTGAATTGAATTGAAGTGAAAGCCAACCGGAGTCACCTAGTGCAG” was run?
**A.** Its binding signal is 3620 fluorescence intensity (a.u.).

**Q.** How did the binding signal turn out when “ATGAAATCCATTGATTAACCGATAAAATTCAATGAAATCTCGGAGTCACCTAGTGCAG” was run?
**A.** The binding signal was 4300 fluorescence intensity (a.u.).

**Q.** Which binding signal does the source give for “TTGTTGACAGGTATATTGTCTATGTATTCTAGGATTTTGACGGAGTCACCTAGTGCAG” here?
**A.** Its binding signal is 10200 fluorescence intensity (a.u.).

**Q.** “GCTGACAGGGACAATCGGATGGAGCAGAATGTCTGAACGTCGGAGTCACCTAGTGCAG” was tested. Which binding signal did it give?
**A.** The binding signal was 11000 fluorescence intensity (a.u.).
